Some of the results follow.

The assay concerns PfSIP2 AP2 domain 1 (GST-tagged). The assay is described as follows: gcPBM binding intensity (ln(normalized median fluorescence intensity)); higher = stronger DNA binding. The procedure, abridged: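 Alexa488 anti-GST antibody, scanned at 488 nm, detected GST-tagged P. falciparum DNA-binding domains that had been expressed in E. coli and incubated for 1 h on an Agilent 4 × 180k array. The array carried primer-extended double-stranded 36-bp intergenic genomic probes and negative controls. Binding intensity is the highest Masliner-normalised natural-log median intensity across replicate spots of either orientation of each probe.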
As to “CATATAATAAATAATACACACATATTGGAAATATAT [CACACA_site3212]”, the “gcPBM binding intensity (ln)” value is 6.97. As for “TTTATTTATTTATATTTTTTTATATAATTTATATAT [GTGCAC_negctrl_site301]”, the “gcPBM binding intensity (ln)” value stood at 6.8. Take “AAAGGTATATATGTGTGTACATATATATATATATAT [XGTACX_site5629]”: the “gcPBM binding intensity (ln)” value turned out to be 8.98. Then “TTTTGAGAAAAAATAAAATAATAAATAAAAATACAT [XGTACX_negctrl_site66]”, with 7.14.

On to “AATACAATTGAAAATTGTACTTTGTTTTTTATAAAT [XGTACX_site4080]”, for which the “gcPBM binding intensity (ln)” value was 6.7. Turning to “CACATTTCTGTAGTTGCATGTAGAAAAAAAAAAAAA [TGCATGCA_site810]”, the “gcPBM binding intensity (ln)” value amounted to 7.19. Consider “TACACAAACAGACACACACACACACGCGCACAAAAA [CACACA_site7192]”, for which the “gcPBM binding intensity (ln)” value turned out to be 7.36. Turning to “ATTACATGTATACATGTCAACACGTATAAAAAAAAA [CACACA_negctrl_site1154]”, the “gcPBM binding intensity (ln)” value turned out to be 7.06. For the sequence “ATTATAAATATATTTTGTACTTAAAAGGAAAAAAAA [XGTACX_site55]”, the “gcPBM binding intensity (ln)” value was 6.97. Then “AATAAGCATAGACACACACACAAAAAAAAAAAAAAA [CACACA_site6476]”, with 7.01; and “GATTATCTTCAAGTATGTACACACTATATATAATAA [XGTACX_site5108]”, with 7.49; and “AATAAATAGAGGAAATGTACATATAAAAATAATTTC [XGTACX_site2454]”, with 6.93. As to “TTAACATCTTCGTTGACACACAAAAAAAAAAATAAT [CACACA_site1819]”, the “gcPBM binding intensity (ln)” value is 7.1.

On to “GCACGAAACAATGTATATATATATATATATATATAT [GTGCAC_negctrl_site412]”, for which the “gcPBM binding intensity (ln)” value worked out at 9.78. For the sequence “TTCTTTATGGAAGTGTAAAAAAAGAAATACTTTTTT [CACACA_negctrl_site915]”, the “gcPBM binding intensity (ln)” value turned out to be 6.76.

For “ATATAACAGAAACACACACACATATATATATATTAT [CACACA_site4140]”, the “gcPBM binding intensity (ln)” value turned out to be 7.31. As to “TATTTTTATATATAATCACACATTGGAATGTTCTAA [CACACA_site5540]”, the “gcPBM binding intensity (ln)” value came out at 7.03. “ATAAATGATAGTAAAAGTACACAAAATGTTTTAAAA [XGTACX_site1623]”: the “gcPBM binding intensity (ln)” value was determined as 6.91.

Take “CCTTTTTCTAATGGATGTACTTATTATATACATTAT [XGTACX_site281]”: the “gcPBM binding intensity (ln)” value was determined as 7.14. “AAGAAAAGTAAATATGCATGTAGGGTAGGTTATTTT [TGCATGCA_site46]”: the “gcPBM binding intensity (ln)” value is 7.1. Then “TATATATATCTGTATACACACATATGTATGTTATGT [CACACA_site6090]”, with 7.36; and “ATATTTTTTCTGAACGGTACAGAATTTTTCAAGATT [XGTACX_site484]”, with 6.97. For “AAATTTATATATAGTTGTACAAAAATATGTTTCGTA [XGTACX_site4801]”, the “gcPBM binding intensity (ln)” value was found to be 6.97.

Regarding “TTATTTTATCACACATGTACATATGTTAATTTTTTT [XGTACX_site5598]”, the “gcPBM binding intensity (ln)” value is 7.17. As to “TGAATAATCAATAGTACACACATATAAATATATATA [CACACA_site2813]”, the “gcPBM binding intensity (ln)” value came out at 7.28. As to “AAAATAAAAAGAAATAAATTAACAGTAAGGAAAAAA [CACACA_negctrl_site1105]”, the “gcPBM binding intensity (ln)” value turned out to be 7. Regarding AACATTTATATTTAAGTGCAGATGCTGTAATTTAGA, the “gcPBM binding intensity (ln)” value amounted to 7.44. Take “TTTTTATAACAAAGTATTTAAATAATTTATACTAAT [TGCATGCA_negctrl_site104]”: the “gcPBM binding intensity (ln)” value turned out to be 6.89. Turning to “GAACAAATTACAAGTTGTACTTTATGTAAATTATTA [XGTACX_site5304]”, the “gcPBM binding intensity (ln)” value was 6.76.

In the case of “ATGCGTTCATACATACATACATACATACAATTTGTA [TGCATGCA_negctrl_site50]”, the “gcPBM binding intensity (ln)” value is 7.11. Regarding “TAATTCATCCTATGCACACACAATACCAAAATGTGC [CACACA_site4269]”, the “gcPBM binding intensity (ln)” value was found to be 7.26. For “TAATTTATTAATAATTGTACAGATATTATACTTAAA [XGTACX_site8947]”, the “gcPBM binding intensity (ln)” value is 6.83. As to “TTTTGAATTAAACAAGCATGCTTTATTTACTTCTTA [TGCATGCA_site289]”, the “gcPBM binding intensity (ln)” value was determined as 6.61. Then “TGCTCATGAGGTCAGAGTACAAAATAGTAAATGTAT [XGTACX_site2973]”, with 6.93; and “TTTATTTTTATTTTTGTGCACGGGATTAAATAAAAG [GTGCAC_site9842]”, with 10.5.

On to “TTTTTTTTTTTTTTTCTTTTTTATTCTCACAAAAAA [CACACA_negctrl_site1790]”, for which the “gcPBM binding intensity (ln)” value was 6.87.

Take “TATATATACTTAGAAACACACAAAAATATTTTATAA [CACACA_site2578]”: the “gcPBM binding intensity (ln)” value is 6.91. For “TAATTAGTTTTTACTTTTTTTTTTTTTTTTCTATAT [CACACA_negctrl_site1024]”, the “gcPBM binding intensity (ln)” value was determined as 6.77.

Regarding “TTATGTATATTATAAATTAATACCTTTAAATTAATA [CACACA_negctrl_site67]”, the “gcPBM binding intensity (ln)” value is 6.78. With “ATAATCCTGAAACACACACACACACCCATAAATAAA [CACACA_site481]”, the “gcPBM binding intensity (ln)” value stood at 7.1. For “TATAACTTATTTTTTAGTACATATTATAGTTCATTT [XGTACX_site8649]”, the “gcPBM binding intensity (ln)” value worked out at 6.89.

Take “TAAAAGGAGACATATACACACATATATATATATATA [CACACA_site5539]”: the “gcPBM binding intensity (ln)” value was determined as 9.31.

Turning to “ATTCCTCATTAATATTCTTATTTTTTAATTCACATT [XGTACX_negctrl_site329]”, the “gcPBM binding intensity (ln)” value was 7.08.

Turning to “TTTATTTAAAATAAGTGTACTAGAAAAATTAAGCAG [XGTACX_site4982]”, the “gcPBM binding intensity (ln)” value was found to be 7.46.
